Where no end group is shown, it is not given here.
System: RAW 264.7 (Mouse leukaemic monocyte macrophage cell line) cells
Assay: Phagocytosis assay (Fluorescein-labeled Escherichia coli, flow cytometry)
Format: cell-based
Details: 10 micrograms per ml; RAW 264.7, 30 min pre-incubation, 60 min ingestion

Substance	increase on the phagocytic activity of murine macrophages [%]
Tyr-Gly-Phe-Gln-Asn-Ala-OH (YGFQNA-OH) [peptide 2]	22.9
Met-Ala-Ile-Pro-Pro-Lys-Lys-Asn-Gln-Asp-Lys-OH (MAIPPKKNQDK-OH) [peptide 1]	22.9

— patent US20100204144A1, “USE OF THE PEPTIDES MAIPPKKNQDK (COW KAPPA CASEIN 106-116) AND/OR YGFQNA (SERORPHIN) AS THERAPEUTIC AGENTS” (priority 2007, published 2010)
